In PubChem BioAssay AID1794842 (National Center for Advancing Translational Sciences (NCATS), 2023):
In all, about 2,800 compounds went through this assay and fewer than 10 were called active. Calls follow the shape of the dose curve; as a rule, active = well fitted curve in the direction sought with a large enough effect; inconclusive = small, poorly fitted or top-dose-only effect, or another doubt; inactive = no such curve, though single readings can be large or run the other way. Some of the results follow.

Target: Metallo-beta-lactamase type 2 (Klebsiella pneumoniae) (UniProt C7C422)
Test: qHTS to identify inhibitors of the New Delhi Metallo-beta-lactamase (NDM): Meropenem screen against the machine-based learning selections. Also: % of control where 0% means no effect.
Conditions: Purified NDM-1, meropenem hydrolysis, absorbance 300 nm; at 38.4 µM (top of the series) unless noted
Source text: Assay Submitter (PI): James Inglese Ph.D., Patricia Dranchak Ph.D., Mahesh Aitha Ph.D. Assay Development and Screening Technology Laboratory (ADST) National Center for Advancing Translational Sciences (NCATS), Rockville, MD National Institute of Health (NIH), Bethesda, Maryland The metallo-beta-lactamases (MBL) are a main antibiotic resistance mechanism evolved by bacteria. There is an urgent clinical need for MBL inhibitors to mitigate this growing threat. To support a machine-based learning study, qHTS has been used to experimentally test inhibitors identified by prediction tools.
PROTOCOL TABLE (as described by Inglese et al., 2007) SEQUENCE No. (e.g., 1, 2, 3, etc.); […] (e.g., enzyme, Incubation, Reagent, etc.); VALUE; DESCRIPTION Primary Screen 1; NDM-1; 4 uL of 3 nM enzyme [2 nM final] in 50 mM HEPES (pH 7.0), 1 uM […], 0.01% Tween20; Use BioRaptr to dispense into two sets of Aurora black, clear bottom high base 1536-well plates 2; Compounds; 23 nL; Use Pin Tool (Wako) to transfer DMSO control and library compounds in DMSO 3; Incubate; >30 min 4a; Reagent; 2 uL of 50 uM nitrocefin [16.7 uM final] to one set of assay plates 4b; Reagent; 2 uL of 150 uM meropenem [50 uM final] to second set of assay plates 5a; Incubate; 15 min 5b; Incubate; 30 min 6a; Detector; Absorbance at 485 nm (bandwidth = 5 nm, 25 flashes/well) on Tecan Infinity 6b; Detector; Absorbance at 300 nm (bandwidth = 5 nm, 25 flashes/well) on Tecan Infinity NOTES (numbers refer to sequence above) 1; Column 1 of each plate received assay buffer without enzyme and columns 2-48 received enzyme for a final assay concentration of 2 nM. 2; Control plate contained DMSO in columns 1, 2, 3, and 4. 3; Compound interaction with enzyme. 4; Nitrocefin and meropenem substrates were prepared in the same assay buffer as step 1 for a final assay concentration of 16.7 uM and 50 uM, respectively, and added to all wells across respective sets of assay plates. 5; Default reader settings were applied for absorbance read at 485 nm (nitrocefin) or 300 nm (meropenem), bandwidth = 5 nm, 25 flashes/well. References: Inglese J, Shamu CE, Guy RK. 2007. Reporting data from high-throughput screening of small-molecule libraries. Nat Chem Biol. doi:10.1038/nchembio0807-438 Yasgar A, Shinn P, Jadhav A, Auld D, Michael S, Zheng W, Austin CP, Inglese J, Simeonov A. 2008. Compound Management for Quantitative High-Throughput Screening. J Lab Autom 13:79 - 89. doi:10.1016/j.jala.2007.12.004

Sequence of UniProt C7C422 (C7C422 whole entry, looked up): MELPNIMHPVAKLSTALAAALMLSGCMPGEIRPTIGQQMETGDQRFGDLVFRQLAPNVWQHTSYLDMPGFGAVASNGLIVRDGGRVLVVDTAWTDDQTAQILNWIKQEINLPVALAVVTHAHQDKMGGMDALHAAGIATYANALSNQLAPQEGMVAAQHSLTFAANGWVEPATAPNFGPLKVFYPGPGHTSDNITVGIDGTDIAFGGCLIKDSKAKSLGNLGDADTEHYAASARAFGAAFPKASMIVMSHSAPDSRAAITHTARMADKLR

Activity change, negative = inhibition, inactive:
O=c1cc(-c2cccnc2)oc2c(-c3ccccc3O)nccc12 17.2% [at 57.5 µM]
O=C1Nc2ccc(-c3cccs3)cc2C(=O)N2CC[C@H](NS(=O)(=O)c3ccc(Cl)cc3)C[C@@H]12 0.0233%
O=C(NCc1ccccc1)O[C@@H]1CO[C@H]2[C@@H]1OC[C@@H]2Nc1nccc(-c2ccc3c(c2)OCO3)n1 -0.584%
O=C1Cc2c(-c3cccc(CO)c3)n[nH]c2CN1CC1CC1 30.1% [at 57.5 µM]
NC(=O)COc1ccc(C(=O)N[C@@H]2CN(C(=O)NC3CCCCC3)CCC[C@H]2O)cc1 0.417% [at 57.5 µM]
N#Cc1cccc(C2CCN(C(=O)C3CCN(C(=O)C4CC4)CC3)CC2)c1 1.93%
Cc1cccc(Cl)c1NC(=O)N1CCC2(CC1)C(C(=O)O)CC(=O)N2C (stereo not drawn) 13.3%
CC(C)(CNc1ccc(-c2nc(C3CC3)no2)cn1)N1CCOCC1 8.76%
O=C(c1cccc(-n2cnnc2)c1)N1CCCCCC1c1cccc(F)c1 (stereo not drawn) -1.1%
CCc1noc(-c2cn(C3CCN(C(=O)c4ccc(C)c(C)c4)CC3)nn2)n1 -0.0517%
COc1ccccc1CN1CC(c2noc(-c3ccc(C)cc3C)n2)CC1=O (stereo not drawn) -1.43%
Cc1noc([C@@H]2CN(C(=O)c3cc(C)n(Cc4ccco4)c3C)C[C@H]2C(N)=O)n1 0.991%
CC(C)C[C@@H]1N[C@H](C(=O)NCc2cccs2)Cc2cn(CC3CC3)c3cccc1c23 26.7% [at 57.5 µM]
CC1(C(=O)NCc2cccnc2)CCc2cnc(Nc3ccccc3)nc21 (stereo not drawn) -4.41% [at 57.5 µM]
O=C(N[C@H](c1cccs1)C1CC(O)C1)c1cccc(-n2cccn2)c1 (stereo partly drawn) -0.869%
Nc1ncccc1CN1CC[C@@H]2OCC(=O)N(Cc3ccc(O)cc3)[C@H]2CC1 -5.12% [at 57.5 µM]
Cc1ccc(O)c(CN2CC[C@@H](c3ccc(F)cc3)[C@H](O)C2)c1 2.68%
Cc1ccc(CNC(=O)CN2CC3CC(C2)[C@H]2CCCC(=O)N2C3)cc1 (stereo partly drawn) -1.93%
COc1cccc(S(=O)(=O)N2CCC(n3cnnc3-c3ccccc3)CC2)c1 1.49%
CN(Cc1cc(C[C@H]2CNCC[C@H]2CC(=O)N2CCN(c3ccccc3)CC2)no1)c1ccccc1 0.828%
Cc1nc(N(C)C)ncc1C(=O)NC(C(=O)O)c1c(C)n[nH]c1C (stereo not drawn) -0.198%
COc1ccc(-c2cc(N3CCCN(C(=O)c4cnccn4)CC3)n[nH]2)cc1 -1.74%
Cc1ccc2nc(C3CCN(Cc4cccc(-c5ccsc5)c4)CC3)[nH]c(=O)c2c1 3.46%
CSCC(=O)N[C@H]1CCN2C(=O)c3ccccc3NC(=O)[C@H]12 -0.923% [at 57.5 µM]
N#Cc1cccc(CN[C@H]2[C@H](O)[C@H](O)C[C@@H]2c2ccc(N3CCOCC3)nc2)c1 2.45% [at 57.5 µM]
O=C(O)[C@H]1C[C@H](C(=O)NCc2ccccn2)CN(Cc2ccccc2)C1 44%
CN1CCN(c2nc3c(c(=O)[nH]2)CCN(Cc2ccccc2C(F)(F)F)CC3)CC1 39.8%
COC(=O)[C@H](NC(=O)C1=C[C@@H](NC(=O)Nc2cccc(F)c2)[C@@H](O)[C@H](O)C1)C(C)C -0.477% [at 57.5 µM]
Cc1n[nH]c(C)c1CCC(=O)N1CCCC(c2ccc(C(=O)O)cc2)C1 (stereo not drawn) 1.52%
CNC(=O)[C@@H](c1ccc(Cl)cc1)N1CCC[C@H]1C(=O)NC(C)(C)C 50.1% [at 57.5 µM]
O=C1CC(C(=O)O)C2(CCN(c3ncc(C(=O)O)cc3Cl)CC2)N1 (stereo not drawn) 7.33%
Fc1ccc(CNC[C@H]2Cn3c(-c4ccc5c(c4)OCCO5)cnc3CO2)cc1 8.05% [at 57.5 µM]
O=C(NCCc1ccccc1)c1cnc2c(c1)N([S+](=O)([O-])c1cccnc1)CCC2 2.85% [at 57.5 µM]
Cc1ccc(-c2cc(N3CCCN(C(=O)CCc4ccccc4)CC3)n[nH]2)cc1C 0.387%
O=C(Cc1csc(-c2ccccc2)n1)N[C@H](c1ccccn1)C1CC(O)C1 (stereo partly drawn) 7.84%
CN1C[C@@H](NC(=O)Nc2ccccc2)C[C@H]1c1nc(-c2ccc(F)cc2)no1 -3.71% [at 57.5 µM]
CC(C)(Cc1ccc(F)cc1)NC(=O)C1CCC(=O)N(Cc2ccccn2)C1 (stereo not drawn) 2.22%
O=C(CCc1ccccc1)N1CCNc2cnc(Nc3cccnc3)nc2C1 10.5% [at 57.5 µM]
CC(C)(C)c1ccc(-c2cc(C[C@H]3CNCC[C@H]3CC(=O)NCc3cccnc3)no2)cc1 25.1%
COCCCNC(=O)N1CC(c2nc(CCOCC3CCOCC3)no2)C1 -0.818%
Cc1cccc(-c2cnc3[nH]cc(CC(N)=O)c3c2)c1 6.74% [at 76.7 µM]
COc1ccc(CN2Cc3[nH]cnc3C[C@H]2c2nc(-c3ccc(C(F)(F)F)cc3)no2)cc1 25.5%
COc1cc(C)c2c(c1C)C[C@H](C(C)C(=O)NCc1ccco1)CC2 (stereo partly drawn) 10.3% [at 57.5 µM]
OC1(CN2CCCN(c3nc4ccccc4s3)CC2)CNCCOC1 (stereo not drawn) 49.5%
CCCCc1cc(C[C@@H]2C[C@H](NC(=O)NCC)C2(C)C)no1 -2.11% [at 57.5 µM]
Fc1ccc(C2Cn3nnc(-c4nc(-c5ccc6c(c5)OCO6)no4)c3CO2)cc1 (stereo not drawn) 1.39%
c1ccc(CN2CCNc3cc(Nc4ccc(N5CCOCC5)cc4)ncc3C2)cc1 0.572% [at 57.5 µM]
O=C1CCC(CNC(=O)c2nc(-c3ccccc3)cc3[nH]ccc23)N1 (stereo not drawn) 8.63% [at 57.5 µM]
CC(=O)N1CCC(N2CC[C@H](c3nc4ncccc4[nH]3)C2)CC1 2.9% [at 57.5 µM]
Cc1ccc(S(=O)(=O)N2CCCC(Cn3c(C)nc4cccnc43)C2)cc1Cl (stereo not drawn) -3.41%
Cn1cnc(C(=O)N2CCC(OC3CCN(S(C)(=O)=O)CC3)CC2)c1 52.3%
CN1C[C@@H](NC(=O)c2cccnc2)C[C@H]1c1nc(-c2ccncc2)no1 3.11% [at 57.5 µM]
CCC[C@@H]1CN(C(=O)c2ccc(OC)o2)C[C@H]1C(=O)O 18.2%
CCCS(=O)(=O)N1CCC(N2CCCC(C(=O)N3CCOCC3)C2)CC1 (stereo not drawn) 0.988%
O=C(Nc1cccc(F)c1)C1CCN(C(=O)N2CC3CC(C2)[C@H]2CCCC(=O)N2C3)CC1 (stereo partly drawn) 2.72%
COc1ccc(C(=O)N[C@@H]2CN(C(=O)Nc3ccccc3)CCC[C@H]2O)cc1 -1.35% [at 57.5 µM]
Cc1noc2c(-c3cccc(CO)c3)cc(-c3ccccc3)nc12 12.2% [at 57.5 µM]
O=C(O)c1ccnc(-c2ccnc(NCC(O)c3ccccc3Cl)n2)c1 (stereo not drawn) 2.38%
CC1(COc2cccnc2)COc2ccc(C(=O)Nc3ccc4[nH]ccc4c3)cc2N1 (stereo not drawn) 16.2% [at 57.5 µM]
Clc1cccc(Nc2cc3c(cn2)CN(Cc2cccnc2)CCN3)c1 1.21% [at 57.5 µM]
O=C1NCCCc2[nH]c(-c3csc(-c4cnccn4)n3)nc21 8.44%
c1ccc(-c2ccc3ncc(Nc4ccccn4)n3n2)cc1 16.5% [at 76.7 µM]
Cc1cc(CNC(=O)[C@@H]2CCC[C@@H](NC(=O)c3ccc(C#N)cc3)CN(C)C(=O)C2)no1 0.691%
COc1cc(-c2nc3cc4[nH]c(=O)[nH]c4cc3[nH]2)cc(OC)c1O 0.965%
O=C(COc1ccccc1)N1CCCC(Nc2ccc(F)cc2)C1 (stereo not drawn) 0.919%
CSc1cccc(NC(=O)Cn2c(N3CCOCC3)nc(C)cc2=O)c1 8.23%
O=C(NC1CCCCCC1)c1ccc2c(c1)CC(=O)N2Cc1ccc(F)cc1 1.58%
COc1ccc(C(=O)N[C@H]2C[C@H]3C(=O)Nc4ccc(-c5ccsc5)cc4C(=O)N3C2)cc1 -3.03%
Cc1ccccc1-c1[nH]nc2ncc(-c3ccccc3O)nc12 0.134% [at 57.5 µM]
O=C1Nc2ccc(-c3ccc(Cl)cc3)cc2C(=O)N2CC[C@H](NS(=O)(=O)c3cccs3)C[C@@H]12 1.65%
OCc1cccc(-c2cc3c(cn2)CN(CCc2ccccc2)CCN3)c1 52.4% [at 57.5 µM]
O=C(CCc1ccccc1)N1CCNc2cnc(Nc3ccc(-n4ccnc4)cc3)nc2C1 26.1%
CCCN(C)C(=O)CC1COCCN1C(=O)Nc1cccc(SC)c1 (stereo not drawn) 1.9%
Cc1ccccc1[C@H]1C[C@@H](O)[C@@H](O)[C@@H]1NS(C)(=O)=O 1.14% [at 76.7 µM]
Cc1cc(-c2cnc3[nH]cc(CC(=O)NCc4cccnc4)c3c2)ccn1 3.65% [at 57.5 µM]
O=C(Cc1ccc(Cl)cc1)N[C@H]1[C@H](O)[C@H](O)C[C@@H]1c1cccnc1 0.0188% [at 57.5 µM]
CCn1cnnc1CC1CCCN(S(=O)(=O)c2ccccc2C)C1 (stereo not drawn) -0.103%
COCc1cn(C[C@H]2C[C@@H](NC(=O)Nc3cccnc3)[C@H](O)[C@@H]2O)nn1 57.5% [at 57.5 µM]
